# Measured values taken from article PMC7819943, “Rice protein-binding microarrays: a tool to detect cis-acting elements near promoter regions in rice”.
# The list shows a part of the results.
# Target: T1, OsWOX13 (Oryza sativa, UniProt Q5QMM3 1-267)
# T1 sequence: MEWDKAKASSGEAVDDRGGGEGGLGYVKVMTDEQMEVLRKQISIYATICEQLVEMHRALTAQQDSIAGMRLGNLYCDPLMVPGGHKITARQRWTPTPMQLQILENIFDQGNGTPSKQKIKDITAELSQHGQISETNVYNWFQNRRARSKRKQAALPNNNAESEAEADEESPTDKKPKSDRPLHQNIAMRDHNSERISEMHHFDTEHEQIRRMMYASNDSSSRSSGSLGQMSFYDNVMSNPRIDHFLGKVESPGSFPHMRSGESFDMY
# Assay: protein-binding microarray (RPBM); PBS, 2% BSA, 51.3 ng/ul salmon testes DNA, 50 uM zinc acetate, 200 nM TF, 25 C, 1 h; high values mean tight binding
# Details: protein: recombinant; tags: N-terminal polyhistidine and DsRed monomer fusion (pET32a); label: CyDye5-dUTP incorporated in the synthesized complementary strand; 3' TTTTT single-stranded linker to array surface; dsDNA, one strand shown
# Procedure, shortened: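 The binding signal is fluorescence intensity per feature, in arbitrary units, read on an Axon 4000B scanner. Polyhistidine- and DsRed-tagged transcription factors (N-terminal fusions) from E. coli BL21-CodonPlus were purified on Ni–NTA and applied at 200 nM for 1 h at 25 °C to a double-stranded, BSA-blocked custom Agilent array in buffer with 50 µM zinc acetate.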
row,Sequence,binding signal
1,AAAACTAATTACAAAATCCGCAAGTAAATCGTGAGGCGAACGGAGTCACCTAGTGCAG,14400 fluorescence intensity (a.u.)
2,CCTAATTAATCTGTCATTAGCAAATATTTATTGTAGCATCCGGAGTCACCTAGTGCAG,47000 fluorescence intensity (a.u.)
3,CAATGGGTTCAACATAATTGATGAAAATAATAAATGCCAACGGAGTCACCTAGTGCAG,12600 fluorescence intensity (a.u.)
4,AGCCTCGTTTTGAAGCCTAATTATCAATCTGATCTTACTTCGGAGTCACCTAGTGCAG,4020 fluorescence intensity (a.u.)
5,TCATCAAATGATTAACTAGTGTTATGCCCGTACATTGTAGCGGAGTCACCTAGTGCAG,12600 fluorescence intensity (a.u.)
6,TATATGATTTCCATAATTTCAATATAAGATCGCAACATTGCGGAGTCACCTAGTGCAG,15700 fluorescence intensity (a.u.)
7,ATTGATTTGGTTACAGAGGACTCGGAATATGGGTGGTGATCGGAGTCACCTAGTGCAG,20800 fluorescence intensity (a.u.)
8,TCATCTTTTCAATTATGTTTATACTTATTAGTAAAACATTCGGAGTCACCTAGTGCAG,3480 fluorescence intensity (a.u.)
9,ACTGATATTCTTTCAATTTTGTGTTGACAAGTAACAAATACGGAGTCACCTAGTGCAG,3600 fluorescence intensity (a.u.)
10,TTTCAAGTTTTCAACCAATCACAACCATCGTTGATTTTATCGGAGTCACCTAGTGCAG,4930 fluorescence intensity (a.u.)
11,AGAAATTAACCAAATTCCTAAACATGTTGGCACGACTTAGCGGAGTCACCTAGTGCAG,12500 fluorescence intensity (a.u.)
12,CAAATGTTTCTAAATGATTGGCTTAATGTGTCAACCGGACCGGAGTCACCTAGTGCAG,28700 fluorescence intensity (a.u.)
13,AAATAGATTTGGAGTGAGCATCAAGACTCTGCTCTCGGCTCGGAGTCACCTAGTGCAG,8340 fluorescence intensity (a.u.)
14,CTTGATCCAGGCTCAGATTGAAACTGGCGGTCGAGAGATTCGGAGTCACCTAGTGCAG,3890 fluorescence intensity (a.u.)
15,ATCAATCAATCAATCAATCAGCAAAGAGCATCCCAAACAACGGAGTCACCTAGTGCAG,33900 fluorescence intensity (a.u.)
16,ATGTTATGAATTGATTGGGTTAGGGAGTTTTCTTCTGGTCCGGAGTCACCTAGTGCAG,35700 fluorescence intensity (a.u.)
17,CCTAGCCCTAATTGATCCTTGCCTCGATGTTTTCCCTCCGCGGAGTCACCTAGTGCAG,19100 fluorescence intensity (a.u.)
18,ACTTTGACATAGTTGTTAATTACATATGAAAGCGGCTTAACGGAGTCACCTAGTGCAG,22900 fluorescence intensity (a.u.)
19,GGGGCTTGATTTATTGGGGTTTTGATAGTTGAGAACTTGACGGAGTCACCTAGTGCAG,30900 fluorescence intensity (a.u.)
20,TTTCTCTAATTTATTTGCACCACGTAGCGACTTAGGATAGCGGAGTCACCTAGTGCAG,7300 fluorescence intensity (a.u.)
21,TGGCAAATTAGTAGCTTGGTGGAAATTGCCCGAGTTGAGTCGGAGTCACCTAGTGCAG,6110 fluorescence intensity (a.u.)

row,Sequence,binding signal
1,GTCCATTCACCACAAATTTAACACCGTTACCATTAGTTAACGGAGTCACCTAGTGCAG,5050 fluorescence intensity (a.u.)
2,TATATATATATATATATATATATATATATAACTACAATAGCGGAGTCACCTAGTGCAG,28800 fluorescence intensity (a.u.)
3,ACATAAATTGAGAATCAATATGCAATACTAAAGGTTCAAGCGGAGTCACCTAGTGCAG,18100 fluorescence intensity (a.u.)
4,CCGAGGAAACAATTATTGGTGACGTAGCTAAATCTTAGGTCGGAGTCACCTAGTGCAG,3460 fluorescence intensity (a.u.)
5,GGAAAGTGATTATATTTCATCAATAGATATCCCCTCGTTTCGGAGTCACCTAGTGCAG,18200 fluorescence intensity (a.u.)
6,ATTCACAAATTACTTTCCGTTTACAAATATACTGTTTTGCCGGAGTCACCTAGTGCAG,5750 fluorescence intensity (a.u.)
7,AGCTGATTTGCTTGAACATGAAGAGCTGAACAAAGACAGCCGGAGTCACCTAGTGCAG,26200 fluorescence intensity (a.u.)
8,GTGTTGCCTGATTGAGACTGTCCCTCAAGCAATAGAAATCCGGAGTCACCTAGTGCAG,12200 fluorescence intensity (a.u.)
9,TAAATTTTAAATTTAAAATAATTAGCACTTAATTAATCATCGGAGTCACCTAGTGCAG,37300 fluorescence intensity (a.u.)
10,GAAAATAATTAAATTTAAAATTGAGTTTTAAATTTTAATCCGGAGTCACCTAGTGCAG,22400 fluorescence intensity (a.u.)
11,AATTAATTATAGTATTGTTTAGTTTATTGTGTTTTGTGTTCGGAGTCACCTAGTGCAG,22100 fluorescence intensity (a.u.)
12,AAGATTTTAGTTCAAATTATAATATGTGAGCGAGCCTGCTCGGAGTCACCTAGTGCAG,3710 fluorescence intensity (a.u.)
13,AGATAATACTTAATCATGTACTAATAAGTTACTTTGTTATCGGAGTCACCTAGTGCAG,3500 fluorescence intensity (a.u.)
14,AAAGTGATTGATACGATGTAGAAGCATAGCAATAGCTGTCCGGAGTCACCTAGTGCAG,48300 fluorescence intensity (a.u.)
15,ATAAATAAATACTCTAATTGCAAGCAACCAACGTCCCAACCGGAGTCACCTAGTGCAG,5780 fluorescence intensity (a.u.)
16,TTTCAAATCAAATCCAATCCTCCTCCTCCAGATCTCTCCACGGAGTCACCTAGTGCAG,3410 fluorescence intensity (a.u.)
17,TTTGATGATATCCTAATTTACAGCAAGACATTGGAGGAACCGGAGTCACCTAGTGCAG,28100 fluorescence intensity (a.u.)
18,ATCGATTTGGTGAGATTAATTGGGTTTCTAATGGTGGGGTCGGAGTCACCTAGTGCAG,13300 fluorescence intensity (a.u.)
19,AGTAATTTAAACACGAAAACATTTCTTATTGACAAGAATACGGAGTCACCTAGTGCAG,4230 fluorescence intensity (a.u.)
20,TTATTTAATTTAGAAAATTGGAGTTACCAGTTGTTCAGTTCGGAGTCACCTAGTGCAG,19500 fluorescence intensity (a.u.)
21,TCTTTCTAAAATTTAAAATTTATCCTGAAAGACTTATCACCGGAGTCACCTAGTGCAG,3150 fluorescence intensity (a.u.)

row,Sequence,binding signal
1,ATATAAATAAATACAATTATAATAATAATCAAAATGGTCACGGAGTCACCTAGTGCAG,5150 fluorescence intensity (a.u.)
2,TTCGAACGGCGATTGTAATTGGTAGGGCCTATTCAGAATCCGGAGTCACCTAGTGCAG,4280 fluorescence intensity (a.u.)
3,GTACTATGTACTACGTATCAATCAATTAGTTAGGTGTTTGCGGAGTCACCTAGTGCAG,13500 fluorescence intensity (a.u.)
4,ATAACAGTAACGATCTTCAATTATCTCTCCATGAACATAACGGAGTCACCTAGTGCAG,3300 fluorescence intensity (a.u.)
5,GTCTAATTGCTCTATGATTTAACAATGTAGTGCTACAGTACGGAGTCACCTAGTGCAG,52000 fluorescence intensity (a.u.)
6,AGGATCGTCCATTAAGAGTTGTCAATTATTATTACAGTTACGGAGTCACCTAGTGCAG,4620 fluorescence intensity (a.u.)
7,TATGATTACTATTTTCATTGTTGTTAGATAATAAAACATGCGGAGTCACCTAGTGCAG,27600 fluorescence intensity (a.u.)
8,GCATTTTAAATTGCAACGATTGCTCAGATTGGGAACTCCGCGGAGTCACCTAGTGCAG,8600 fluorescence intensity (a.u.)
9,ATAATAAACTGAGAGGAGGATAGTAATATGTACTTAGTAACGGAGTCACCTAGTGCAG,4400 fluorescence intensity (a.u.)
10,TAAAACATAACATAATTGTTTCAACTCATATACTACACATCGGAGTCACCTAGTGCAG,14300 fluorescence intensity (a.u.)
11,TATGTTTGAGATCGACGGTTAATTGAAACAAGTCGTTGCGCGGAGTCACCTAGTGCAG,4050 fluorescence intensity (a.u.)
12,TGTCCTGTTAACTGACTTCAAGTTGGAGATTTCACCAACCCGGAGTCACCTAGTGCAG,3720 fluorescence intensity (a.u.)
13,TAATTATTTGAATTAGTGATTTTGTACCAAATGATCGAACCGGAGTCACCTAGTGCAG,3660 fluorescence intensity (a.u.)
14,GTTTGATTGATTGATTTCGTGTACCATGCGGACTTCAGATCGGAGTCACCTAGTGCAG,65100 fluorescence intensity (a.u.)
15,TTCATTAATACATAATTAACTGAGTATTAATTAAAGTAATCGGAGTCACCTAGTGCAG,26700 fluorescence intensity (a.u.)
16,CTTCTAATTAGTGTCCAAACATTTGATATGACAAAGACTACGGAGTCACCTAGTGCAG,24900 fluorescence intensity (a.u.)
17,GATCTCCAGGTGAATAAATGATTGCTTTCTTTAGCAACCACGGAGTCACCTAGTGCAG,4150 fluorescence intensity (a.u.)
18,ACCTTTAAAAGATTGGATTGGTATATTTTAACATTGATTACGGAGTCACCTAGTGCAG,11200 fluorescence intensity (a.u.)
19,GATAAATTTGATGTTGGAAACTCGGAGTATTTATGGTGGACGGAGTCACCTAGTGCAG,16700 fluorescence intensity (a.u.)
20,TAAAATTACGATAATTTAATCTCTTGCTGTTTTCAGAAGCCGGAGTCACCTAGTGCAG,28100 fluorescence intensity (a.u.)
21,TCAAAATAGACTTATTCAATATTAGGCCTCTACACGATGGCGGAGTCACCTAGTGCAG,4380 fluorescence intensity (a.u.)

row,Sequence,binding signal
1,TGGAATGATGGATAAAGTCCAAGTTTGACCTGAGTCAAAGCGGAGTCACCTAGTGCAG,6270 fluorescence intensity (a.u.)
2,GTTAATTAAGCTCTGATAATTCTAACACTAGTGACAAATTCGGAGTCACCTAGTGCAG,21600 fluorescence intensity (a.u.)
3,CGAAACTGATATGGTGTACGCTGTCACCGAATACTATCTCCGGAGTCACCTAGTGCAG,4220 fluorescence intensity (a.u.)
4,ATTTAATGAATTATATGTGGAGTATGTGTAAAGTTTGACCCGGAGTCACCTAGTGCAG,8610 fluorescence intensity (a.u.)
5,TGTTTATGCTTACTAATTACCACAAGTAACATTAAGTCAACGGAGTCACCTAGTGCAG,4750 fluorescence intensity (a.u.)
6,GAAAATTGGAGAAATTGTAACCGTACCACTCCATCACATTCGGAGTCACCTAGTGCAG,32500 fluorescence intensity (a.u.)
7,AGGACTACTATAATTGCAACTGAAATAAAACCTTGGCTTGCGGAGTCACCTAGTGCAG,5450 fluorescence intensity (a.u.)
8,TATGTTAGCTTCCCAATCAATTCCATGGAAATATATCATCCGGAGTCACCTAGTGCAG,6500 fluorescence intensity (a.u.)
9,TGTGATTATGTTTGTTACTTCACGCAATGAGCCGTCTAGCCGGAGTCACCTAGTGCAG,22000 fluorescence intensity (a.u.)
10,GTAAATAATTTTAAAGTTATTGATTGGTAAAATTCTAATTCGGAGTCACCTAGTGCAG,26900 fluorescence intensity (a.u.)
11,AATGATTGAACGATCTCAAATCTGCTTAAATCATGTGCTACGGAGTCACCTAGTGCAG,35700 fluorescence intensity (a.u.)
12,TAATAATTAAACATGAAATTAATTAAGTCATATGTGCATACGGAGTCACCTAGTGCAG,22900 fluorescence intensity (a.u.)
13,CCCCTAGATTATTATATTTTAGATAATCTATTTTAGAACGCGGAGTCACCTAGTGCAG,8660 fluorescence intensity (a.u.)
14,TGTGGTAACATAATAAATTTATAATGCCATACTAATAGGACGGAGTCACCTAGTGCAG,5340 fluorescence intensity (a.u.)
15,TATATATATATATATATATGATATGTAGGACCAATTATCACGGAGTCACCTAGTGCAG,13700 fluorescence intensity (a.u.)
16,AATTTGAATTGCTAATTAAATGGAGATTTGGCTAAATAGACGGAGTCACCTAGTGCAG,16200 fluorescence intensity (a.u.)
17,CGCTCAATTCCGCTTTAATTTGGTGACTTGGCGATCGATCCGGAGTCACCTAGTGCAG,6150 fluorescence intensity (a.u.)
18,AGTTTAATAATATAGGCAATTACTAACTCCAAAGATTAACCGGAGTCACCTAGTGCAG,3680 fluorescence intensity (a.u.)
19,ATTAATCATGTTTTATCATCTAATAACAATGAAAATACGACGGAGTCACCTAGTGCAG,3330 fluorescence intensity (a.u.)
20,CTGAGAAAGTTTCAATTACTAATTATGTGAAAACAAAGAACGGAGTCACCTAGTGCAG,4770 fluorescence intensity (a.u.)
21,TCTTTATTTCTTGTTGATTGCAGGATCAAATCAACTAGCACGGAGTCACCTAGTGCAG,13300 fluorescence intensity (a.u.)
